# Measured values published in paper PMC4336329 (PLoS ONE, 2015).
# The campaign covered roughly 310,000 compounds. About 2,200 (0.71%) showed an effect of 50% or more. Effects have a minus sign here. The list shows a part of the results.
# Biological target: human ether-à-go-go-related gene (hERG) potassium channel (human, UniProt Q12809)
# Experiment: primary screen, population patch clamp on CHO cells stably expressing hERG
# human ether-à-go-go-related gene (hERG) potassium channel, sequence (Q12809 whole entry, looked up): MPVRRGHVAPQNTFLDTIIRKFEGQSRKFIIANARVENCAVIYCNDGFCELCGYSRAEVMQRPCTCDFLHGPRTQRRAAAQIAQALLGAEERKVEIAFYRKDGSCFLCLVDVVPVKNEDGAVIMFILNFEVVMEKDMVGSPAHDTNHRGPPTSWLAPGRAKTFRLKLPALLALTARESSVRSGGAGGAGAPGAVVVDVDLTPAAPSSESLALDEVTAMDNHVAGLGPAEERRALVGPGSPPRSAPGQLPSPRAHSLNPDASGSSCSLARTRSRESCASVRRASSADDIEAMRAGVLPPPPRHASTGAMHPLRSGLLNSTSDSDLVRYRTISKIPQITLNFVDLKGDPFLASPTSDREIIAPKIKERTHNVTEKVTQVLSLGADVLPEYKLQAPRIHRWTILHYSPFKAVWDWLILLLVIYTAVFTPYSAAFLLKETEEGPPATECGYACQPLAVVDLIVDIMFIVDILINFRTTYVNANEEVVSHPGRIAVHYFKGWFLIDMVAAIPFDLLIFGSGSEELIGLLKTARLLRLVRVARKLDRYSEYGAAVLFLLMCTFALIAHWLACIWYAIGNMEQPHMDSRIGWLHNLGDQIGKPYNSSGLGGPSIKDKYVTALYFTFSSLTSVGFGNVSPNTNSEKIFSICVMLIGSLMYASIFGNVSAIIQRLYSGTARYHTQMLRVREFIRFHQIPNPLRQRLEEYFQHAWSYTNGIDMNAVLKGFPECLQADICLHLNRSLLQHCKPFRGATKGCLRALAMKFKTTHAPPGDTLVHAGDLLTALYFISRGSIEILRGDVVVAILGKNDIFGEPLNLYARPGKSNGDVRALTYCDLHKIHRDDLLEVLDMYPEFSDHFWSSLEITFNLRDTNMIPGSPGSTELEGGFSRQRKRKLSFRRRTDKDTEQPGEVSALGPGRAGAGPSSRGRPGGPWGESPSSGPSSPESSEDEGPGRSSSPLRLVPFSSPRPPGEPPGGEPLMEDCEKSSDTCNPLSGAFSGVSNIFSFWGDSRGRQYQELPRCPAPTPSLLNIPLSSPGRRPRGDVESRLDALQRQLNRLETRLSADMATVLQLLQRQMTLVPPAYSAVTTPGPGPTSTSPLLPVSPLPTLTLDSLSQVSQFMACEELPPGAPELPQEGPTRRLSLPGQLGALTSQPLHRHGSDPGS
row,SMILES,"hERG current change (%, negative = inhibition) at 1uM [%]"
1,Cc1ccc(-c2cn(-c3ccccc3)c3[n+]2CCCS3)cc1.[Br-],4.07
2,Cc1ccc(C)c(-c2cc(C(=O)N/N=C/c3cccnc3)c3ccccc3n2)c1,4.03
3,COc1ccccc1N(Cc1cc(=O)[nH]c2ccccc12)C(=O)C(C)C,15.3
4,COc1ccccc1Nc1nc(N)nc(CN2CCC(Cc3ccccc3)CC2)n1,-95.7
5,O=S(=O)(NCC1CCCO1)c1ccc2oc3ccc(S(=O)(=O)NCC4CCCO4)cc3c2c1 (stereo not drawn),5.86
6,O=C(NC(=S)Nc1ccc(Oc2ccccc2)cc1)c1ccc(Cl)cc1,2.93
7,C#Cc1ccc([C@@H]2C=C(C(=O)N3CCN(Cc4ccc5c(c4)OCO5)CC3)O[C@H](OCCCCO)C2)cc1,-6.13
8,Clc1cccc(OCCCN2CCCC2)c1Cl,-4.56
9,CCOC(=O)c1sc(NC(=O)Cc2ccccc2OC)nc1C,10.5
10,Cc1cc(C(=O)COC(=O)CC2Sc3ccccc3NC2=O)c(C)n1-c1cccc(C(F)(F)F)c1 (stereo not drawn),13.6
11,CCOC(=O)C1CCN(C(=O)COc2ccc(S(=O)(=O)N3CCCC3)cc2C)CC1,5.91
12,Cn1c(C2=C(O)CN(c3ccccc3)C2=N)nc2ccccc21,-12.6
13,CCOC(=O)CSC1=C(C#N)C(c2ccccc2F)C(C(C)=O)=C(C)N1 (stereo not drawn),3.35
14,Cc1ccc(-c2nc(-c3cccnc3)sc2CC(=O)O)cc1,14.2
15,COc1cc(/C=C/C(=O)OCC(=O)NCCc2ccccc2)cc(OC)c1OC,24.6
16,O=C(NCCCN1CCOCC1)C(=O)N/N=C/c1c(Cl)cccc1Cl,8.5
17,CN(CCOc1ccccc1)CC(=O)Nc1ccc([N+](=O)[O-])cc1Cl,6.76
18,CC1CCCN(c2ccc(C(=O)Nc3cccnc3)cc2[N+](=O)[O-])C1 (stereo not drawn),11.3
19,C/C(=N\N1CCN(C)CC1)c1ccc(Cl)c(Cl)c1.Cl,-7.2
20,COc1cc(NC(=O)c2csc3c2CCCC3)ncn1,7.04
21,CCS(=O)(=O)N1CCCC(c2nc(-c3cccc(OC)c3)no2)C1 (stereo not drawn),1.14

row,SMILES,"hERG current change (%, negative = inhibition) at 1uM [%]"
1,Cc1ccc(S(=O)(=O)CCC(=O)O)cc1C,-1.65
2,COCCOC(=O)c1[nH]c2c(c1C)C(=O)CC(c1cc(OC)ccc1OC)C2 (stereo not drawn),7.81
3,CN(C)S(=O)(=O)c1cccc(NC(=O)CCc2nc3cc(S(=O)(=O)N4CCOCC4)ccc3n2C)c1,-9.32
4,CCN1c2cccc3cccc(c23)S1(=O)=O,-2.47
5,C#CCOCCOCCOCCNc1nc(N2CCN(C(=O)[C@H]([C@@H](C)CC)n3cc(CCCC[NH3+])nn3)CC2)nc(N2CCN(C(=O)[C@H](C)n3cc(CCC[NH+]=C(N)N)nn3)CC2)n1.[Cl-],15.1
6,CC(C)[C@H](NC(=O)c1ccccc1)C(=O)N1CCc2ccccc21,4.91
7,COc1ccccc1/C=C/C=N/n1c(-c2ccc(Cl)cc2)n[nH]c1=S,14.8
8,O=C(c1cccc(F)c1)N1CCN(S(=O)(=O)c2ccc(C(F)(F)F)cc2)CC1,-11.4
9,COc1ccc(C(=O)c2coc3ccc(O)c(CN4CCCCC4)c23)cc1,-61.4
10,COC(=O)N/N=C/C1=CCC2CC1C2(C)C (stereo not drawn),-3.78
11,CN(/C(=N/S(=O)(=O)c1cccs1)c1ccccc1)c1ccccc1,-1.46
12,Cc1nn2c(nc1=O)NNC2(C)C(C)(C)C (stereo not drawn),11.3
13,COc1ccc(-c2[nH]ncc2CN2CCC(N3CCSCC3)CC2)cc1F,3.77
14,CCOC(=O)c1ccc(S(=O)(=O)Nc2cc(C(=O)O)ccc2Cl)cc1,5.69
15,COc1ccc(NC(=O)/C=C/c2ccc3c(c2)OCO3)cc1,4.24
16,CCOc1ccccc1OC(=O)c1cc2ccccc2oc1=O,9.48
17,CCOc1ccc(OCC)c(NC(=O)CN(C)S(=O)(=O)c2cnc[nH]2)c1,9.52
18,COC(=O)[C@@H]1C2CCC(C(=O)Nc3ccccc3)(CC2)[C@@H]1C(=O)OC,7.72
19,NC(=O)c1ccsc1NC(=O)CS(=O)(=O)c1ccccc1,16.9
20,CSc1nnc(C)c(/C=C/NOCc2ccc(Cl)cc2)n1,7.05
21,Cc1ccc2c(c1)C1CN(C)CCC1N2S(=O)(=O)c1cccc(F)c1 (stereo not drawn),7.82

row,SMILES,"hERG current change (%, negative = inhibition) at 1uM [%]"
1,CCOC(=O)c1c(NC(=O)CSc2nnc(CN3CCOCC3)n2C)sc2c1CCCC2,-5.11
2,O=C(COc1nsnc1N1CCOCC1)N/N=C/c1ccccc1O,6.33
3,COc1ccc(CCC(C)NCC2CCCCC2)cc1 (stereo not drawn),9.01
4,COc1ccc(N2CCN(C(=O)c3cn(C)c(=O)c4c3c3ccccc3n4C)CC2)cc1,2.57
5,Cc1ccc(N(C(=O)c2sc(C)nc2C)C(C(=O)NC(C)(C)C)c2ccncc2)cc1 (stereo not drawn),18.7
6,COc1ccc(NC(=O)CC2C(=O)N(c3ccc(Cl)cc3)C(=S)N2NC(=O)c2cccc(F)c2)cc1 (stereo not drawn),13.4
7,COc1ccc(S(=O)(=O)N2CCOCC2)cc1NC(=O)Cc1ccc(Cl)c(Cl)c1,7.37
8,CCC(=O)c1ccc(N2CCN(C(=O)c3ccc(F)cc3)CC2)c(F)c1,-10.2
9,O=C1OC(Nc2nc3ccccc3s2)c2ccccc21 (stereo not drawn),2.78
10,CC[C@@]12C(=O)N(c3cccc(Cl)c3)C(=O)N1[C@H](c1cccc(C)c1)[C@@H]1C(=O)N(Cc3ccccc3)C(=O)[C@@H]12,6.88
11,Cc1nnc(SCC(=O)N(C)C2CCS(=O)(=O)C2)n1Cc1ccccc1 (stereo not drawn),1.71
12,CCOC(=O)Cc1c(Sc2ccccc2)c2ccccc2n1C,2.23
13,Cc1ccccc1/C=C/c1nc2ccccc2c(=O)[nH]1,12.2
14,O=S(=O)(Nc1cccc(-n2cnnn2)c1)c1cc(Cl)ccc1Cl,11.4
15,COc1cccc(-n2nnc3c(=O)n(CC(=O)N4CCC(C)CC4)cnc32)c1,12.3
16,COc1ccc(OC)c(NC(=O)CSc2nc3ccccc3c(=O)n2CCNC(C)=O)c1,1.72
17,CN1CCN(C(=O)c2ccc(CN(c3ccccc3)S(=O)(=O)c3ccccc3)cc2)CC1,-4.01
18,CC(=O)Nc1nc(C)c(-c2csc(Nc3cccc([N+](=O)[O-])c3)n2)s1,5.4
19,CCn1c(=S)sc2c(=O)n(CC(=O)Nc3cccc(OC)c3)c(C)nc21,16.9
20,CCCCCCCCNc1nc(Cl)nc(NCc2ccco2)n1,12.6
21,CC(C)CNC(=S)N1CCC(Cc2ccccc2)CC1,12.4

row,SMILES,"hERG current change (%, negative = inhibition) at 1uM [%]"
1,COc1ccc(-c2csc3nc(C)nc(N4CCN(c5ccc(C(C)=O)cc5)CC4)c23)cc1OC,11.4
2,O=C(CN1C(=O)NC2(CCCCCC2)C1=O)c1ccc(Cl)cc1,6.98
3,COc1cc(-n2c(=O)c3ccccc3n(CC(=O)c3ccc(Br)cc3)c2=O)cc(OC)c1OC,3.14
4,Cc1ccc(NC2=CC(=O)CC(c3ccco3)C2)c(N)c1 (stereo not drawn),9.31
5,O=C(O)c1ccc2c(c1)C(=O)N(c1cccc(S(=O)(=O)Nc3cccc(C(F)(F)F)c3)c1)C2=O,15.9
6,COc1ccc(Cl)cc1S(=O)(=O)n1ccnc1,7.87
7,CCOC(=O)Cc1csc(SCC(=O)Nc2sc3c(c2C(N)=O)CCC3)n1,-3.74
8,CCC1CCCCN1C(=O)c1c[nH]c2ccc(S(=O)(=O)N(C)c3ccc(Cl)cc3)cc2c1=O (stereo not drawn),-9.42
9,COC(=O)c1[nH]c(C)c(/C(O)=C2\C(=O)C(=O)N(CCN(C)C)C2c2cc(OC)ccc2OC)c1C (stereo not drawn),15.2
10,CC(=O)N(C(C)=O)c1c(C#N)c(C)n(-c2ccccc2)c1C(=O)c1ccccc1,-1.51
11,COc1ccc(-c2ccccc2)cc1NCc1ccc(OC)c(OC)c1,6.76
12,O=C(NNC(=S)NC(=O)c1ccccc1[N+](=O)[O-])c1ccccc1,11.7
13,N#C/C(=N\Nc1ccc(F)cc1)C(=N)N1CCCCCC1,5.96
14,CCC(=O)N1CCc2cc(Br)cc(S(=O)(=O)NCCN3CCCCC3CC)c21 (stereo not drawn),-7.81
15,Cc1ccc(C(=O)c2c[nH]cc2-c2ccccc2)cc1,7.18
16,CCc1nc(N2CCN(C(=S)NCCCOC)CC2)c2c3c(sc2n1)CCCC3,8.02
17,CCOc1ccc(NC(=O)Cc2ccc(NC3=NC4CS(=O)(=O)CC4S3)cc2)cc1 (stereo not drawn),1.77
18,O=C(O)COc1ccccc1/C=N/NC(=O)C(O)c1ccccc1 (stereo not drawn),8.28
19,CCOc1ccc(C(=O)NC(C(=O)NCc2ccccc2OC)C(C)C)cc1 (stereo not drawn),11.3
20,O=C(CSc1ccccc1)N1CCCC(Nc2ccccc2)C1 (stereo not drawn),4.04
21,COc1cccc(O)c1CN1CCCC(C(=O)c2cccc(C(F)(F)F)c2)C1 (stereo not drawn),0.0042
